# Test results: the supplement of paper PMC7826260
# The list shows a part of the results. Each Rep nickase domain was tested in vitro on the same pool of single strands (3 µM enzyme, 1 h, 37 °C); shown is the middle of each 90-letter strand. Values are log2 of uncut reads against the no-enzyme pool; more negative means more cut, near 0 not cut, and no call is made. Reads are scaled to the total; uncut strands gain when others are lost, and binding without cutting may add a little.
# How the values were obtained:
# Assay in all cases: uncleaved DNA left, log2 of reads against the no-enzyme library (log2 ratio); higher = less cleavage (more negative = more Rep cleavage of the k-mer); sequences stand for … in CTCGTCCG…ACCGGAGA
# [1] = tested on: T1, Rep nickase domain of Muscovy duck circovirus
# T1 sequence (Rep 1-111, printed without the tag): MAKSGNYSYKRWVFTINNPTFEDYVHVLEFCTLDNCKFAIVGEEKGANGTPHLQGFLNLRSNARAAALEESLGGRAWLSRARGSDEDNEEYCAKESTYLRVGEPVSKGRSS
# Protocol: (§1)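 A pool of 90-nt single-stranded DNAs with seven random bases just before the constant AC of the nick site (name = the seven bases) was cut by 3 µM recombinant His6-SUMO-tagged Rep nickase domain (300 nM DNA, 50 mM HEPES pH 8.0, 50 mM NaCl, 1 mM MnCl2, 1 h, 37 °C, three replicates). Uncut DNA was amplified and sequenced.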
# [2] = tested on: T2, Rep nickase domain of banana bunchy top virus
# T2 sequence (Rep 1-94, printed without the tag): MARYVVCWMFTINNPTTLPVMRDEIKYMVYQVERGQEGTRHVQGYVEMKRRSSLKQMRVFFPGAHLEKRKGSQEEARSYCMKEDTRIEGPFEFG
# Protocol: as §1
# [3] = tested on: T3, Rep nickase domain of cabbage leaf curl virus
# T3 sequence (Rep 1-116, printed without the tag): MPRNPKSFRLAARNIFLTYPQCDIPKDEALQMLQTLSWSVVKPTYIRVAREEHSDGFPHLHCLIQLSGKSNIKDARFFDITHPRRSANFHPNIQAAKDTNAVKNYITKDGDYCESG
# Protocol: as §1
# [4] = tested on: T4, Rep nickase domain of chickpea chlorotic dwarf virus
# T4 sequence (Rep 1-124, printed without the tag): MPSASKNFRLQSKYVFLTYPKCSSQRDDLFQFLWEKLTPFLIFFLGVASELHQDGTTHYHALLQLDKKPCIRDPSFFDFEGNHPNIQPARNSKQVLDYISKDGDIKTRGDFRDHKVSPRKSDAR
# Protocol: as §1
# [5] = tested on: T5, Rep nickase domain of faba bean necrotic yellows virus
# T5 sequence (Rep 1-98, printed without the tag): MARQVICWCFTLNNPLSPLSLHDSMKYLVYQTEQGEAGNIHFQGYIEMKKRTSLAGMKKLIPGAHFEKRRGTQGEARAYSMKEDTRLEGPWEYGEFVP
# Protocol: as §1
# [6] = tested on: T6, Rep nickase domain of maize striate mosaic virus
# T6 sequence (Rep 1-117, printed without the tag): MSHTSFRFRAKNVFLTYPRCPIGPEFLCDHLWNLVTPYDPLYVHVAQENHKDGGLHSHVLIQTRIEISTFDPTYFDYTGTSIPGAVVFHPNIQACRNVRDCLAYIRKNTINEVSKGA
# Protocol: as §1
# [7] = tested on: T7, Rep nickase domain of porcine circovirus 2
# T7 sequence (Rep 2-116, printed without the tag): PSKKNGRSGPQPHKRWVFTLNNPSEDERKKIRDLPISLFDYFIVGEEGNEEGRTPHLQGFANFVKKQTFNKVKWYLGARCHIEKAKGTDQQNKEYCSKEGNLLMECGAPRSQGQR
# Protocol: as §1
# [8] = tested on: T8, Rep nickase domain of tomato golden mosaic virus
# T8 sequence (Rep 1-124, printed without the tag): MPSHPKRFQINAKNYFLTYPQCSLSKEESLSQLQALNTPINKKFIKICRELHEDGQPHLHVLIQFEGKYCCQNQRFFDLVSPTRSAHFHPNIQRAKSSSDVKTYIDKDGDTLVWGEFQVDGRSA
# Protocol: as §1
# [9] = tested on: T9, Rep nickase domain of tomato yellow leaf curl virus
# T9 sequence (Rep 1-136, printed without the tag): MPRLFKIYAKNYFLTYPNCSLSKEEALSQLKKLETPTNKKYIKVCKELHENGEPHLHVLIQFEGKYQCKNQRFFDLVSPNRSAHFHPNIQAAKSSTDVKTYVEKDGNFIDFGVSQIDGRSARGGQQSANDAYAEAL
# Protocol: as §1
# [10] = tested on: T10, Rep nickase domain of wheat dwarf virus
# T10 sequence (Rep 1-137, printed without the tag): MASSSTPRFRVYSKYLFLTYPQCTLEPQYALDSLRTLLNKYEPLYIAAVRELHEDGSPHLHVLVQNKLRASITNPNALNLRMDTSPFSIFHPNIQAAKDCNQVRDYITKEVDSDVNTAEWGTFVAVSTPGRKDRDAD
# Protocol: as §1
Sequence,uncleaved DNA left (log2) [1],uncleaved DNA left (log2) [2],uncleaved DNA left (log2) [3],uncleaved DNA left (log2) [4],uncleaved DNA left (log2) [5],uncleaved DNA left (log2) [6],uncleaved DNA left (log2) [7],uncleaved DNA left (log2) [8],uncleaved DNA left (log2) [9],uncleaved DNA left (log2) [10]
GGTCATA,0.103,0.159,0.733,1.68,0.058,2.14,0.155,-0.00369,0.0821,0.122
GTAGAAC,-0.00733,0.023,0.388,0.831,0.000936,1.58,0.0102,0.00168,-0.0383,0.162
AGTTTTG,0.213,0.00857,-0.0583,-0.0737,0.156,-0.551,0.189,0.0293,-0.0284,0.105
CCTAACT,-0.054,-0.0303,-0.564,-2.64,0.0153,-0.921,-0.167,-0.0824,0.00205,-0.114
CCCACAA,-0.101,-0.0449,0.0286,-0.532,-0.0124,-0.764,0.028,-0.0809,-0.0281,-0.00536
ATACACT,-0.027,-0.0923,-1.01,-2.97,-0.056,-0.889,-0.318,-0.126,-0.0852,-0.336
TGTGCGC,-0.109,-0.281,-0.88,-0.467,-0.0635,-0.923,-0.129,-0.272,-0.178,-0.338
CGCCCGC,-0.0291,-0.0354,-0.0714,-0.14,0.032,-0.259,0.154,-0.0546,-0.00316,-0.0253
ATCCAGG,-0.00767,-0.0896,0.277,1.01,0.0133,0.413,0.0895,-0.0212,0.0278,-0.041
ACTTTCA,-0.174,-0.0493,-0.385,-1.56,0.00695,-0.745,-0.143,-0.066,-0.0623,0.062
ATAAACA,0.0802,0.0296,0.0624,-2.26,0.0716,-0.714,0.0421,0.0829,-0.00141,0.0747
GAAGCAG,0.0902,-0.0125,-0.116,0.00543,0.0164,-0.448,0.206,-0.00324,-0.0141,-0.0602
GGGATGA,0.159,0.172,0.939,2.15,0.0362,2.3,0.262,0.13,0.0345,0.149
ATCTTAC,-1.02,-0.0403,-0.548,-2.31,0.0134,-1.06,-0.651,-0.128,-0.144,-0.197
CGCCCGA,-0.0425,-0.0706,-0.104,-0.24,-0.0596,-0.6,0.0215,-0.0547,-0.143,-0.146
